We go through two molecules from patent publication US10722558 (dated 2020).

What all share (test): SPR
The target of experiment [1] is T1, GDF11 (human, UniProt O95390).
T1 chain: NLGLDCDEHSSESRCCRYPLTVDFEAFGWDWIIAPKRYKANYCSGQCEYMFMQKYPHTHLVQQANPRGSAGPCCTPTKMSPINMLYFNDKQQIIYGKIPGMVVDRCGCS

Experiment [2] deals with T2, Activin B (human, UniProt P09529).
T2 chain: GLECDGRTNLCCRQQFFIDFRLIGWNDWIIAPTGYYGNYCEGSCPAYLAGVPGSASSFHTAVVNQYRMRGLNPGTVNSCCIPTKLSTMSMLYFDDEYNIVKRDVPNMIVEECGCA

Experiment [3] addresses T3, Activin A (human, UniProt P08476).
T3 chain: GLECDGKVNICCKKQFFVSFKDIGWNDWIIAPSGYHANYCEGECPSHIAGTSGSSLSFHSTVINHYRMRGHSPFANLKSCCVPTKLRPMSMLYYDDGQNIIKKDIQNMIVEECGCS

B1: ActRIIB(L79D 25-131)-hFc (protein)
chain: ETRECIYYNANWELERTNQSGLERCEGEQDKRLHCYASWRNSSGTIELVKKGCWDDDFNCYDRQECVATEENPQVYFCCCEGNFCNERFTHLPEAGGPEVTYEPPPTG[human IgG1 Fc and a few adjoining residues not written out]
As to B1, the Kd in experiment [1] came out at 0.074 nM; in experiment [2] it was 0.621 nM; in experiment [3], 22.9 nM.

B2: ActRIIB(25-131)-hFc (protein)
chain: ETRECIYYNANWELERTNQSGLERCEGEQDKRLHCYASWRNSSGTIELVKKGCWLDDFNCYDRQECVATEENPQVYFCCCEGNFCNERFTHLPEAGGPEVTYEPPPTG[human IgG1 Fc and a few adjoining residues not written out]
On to B2, for which the results for the Kd in experiment [1], in experiment [2] and in experiment [3] were 0.031 nM, 0.012 nM and 0.018 nM, respectively.
